In the antibiotic and cytotoxicity screens of Wong et al. (2023) one finds cytotoxicity call and growth inhibition call data, which are given here for 28 molecules.

One assay deals with HSkMC. Put plainly: cytotoxicity call (relative viability < 0.9). The following applies: 10 µM.
In a further assay the test system is HepG2. As to the kind of experiment: cytotoxicity call (relative viability < 0.9). The following applies: 10 µM.
The test system of the next assay is S. aureus RN4220. Put plainly: growth inhibition call (relative growth <= 0.2). To be noted: 50 µM.

This is one part of the list.

`CN(C)CCCNC(=O)[C@@H]1[C@@H](CO)[C@@H]2Cn3c(ccc(-c4cccc(C(=O)N(C)C)c4)c3=O)[C@H]1N2`: the cytotoxicity call in the assay with HSkMC and in the assay on HepG2 was “inactive” each time. In the assay with S. aureus RN4220, the growth inhibition call was “inactive”.
As for `CCCNC(=O)N(C)C[C@H]1Oc2cc(C#Cc3ccccn3)ccc2S(=O)(=O)N([C@H](C)CO)C[C@H]1C`, the cytotoxicity call in the assay on HSkMC and in the assay with HepG2 was “inactive” in each case. Further, the growth inhibition call in the assay on S. aureus RN4220 was “inactive”.
For `C[C@@H]1CN([C@@H](C)CO)C(=O)c2cc(NS(C)(=O)=O)ccc2O[C@@H]1CN(C)Cc1ccc(C(=O)Nc2ccccc2N)cc1`, the cytotoxicity call in the assay with HSkMC and in the assay on HepG2 was “inactive” in each case. The growth inhibition call with S. aureus RN4220 is “inactive”.
In the case of `CNC[C@@H]1OCCCC[C@H](C)Oc2ccc(NC(=O)c3ccncc3)cc2C(=O)N([C@H](C)CO)C[C@@H]1C`, the cytotoxicity call in the assay with HSkMC and in the assay on HepG2 was “inactive” in each case. The growth inhibition call in the assay on S. aureus RN4220 was “inactive”.
With `Cn1ccc(=O)[nH]c1=O`, the cytotoxicity call in the assay with HSkMC and with HepG2 was “inactive” throughout. The growth inhibition call in the assay on S. aureus RN4220 is “inactive”.
Turning to `C[C@@H]1CN([C@@H](C)CO)C(=O)c2cccc(NC(=O)c3nc4ccccc4s3)c2O[C@H]1CN(C)S(C)(=O)=O`, the cytotoxicity call in the assay on HSkMC and in the assay on HepG2 was “inactive” in each case. The growth inhibition call in the assay with S. aureus RN4220 is “inactive”.
For the molecule `COc1ccc(NC(=O)N(C)C[C@@H]2OCCCC[C@@H](C)Oc3ccc(NC(=O)C4CCCCC4)cc3C(=O)N([C@H](C)CO)C[C@H]2C)cc1`, the cytotoxicity call in the assay on HSkMC and in the assay with HepG2 was “inactive” each time. Further, in the assay on S. aureus RN4220, the growth inhibition call is “inactive”.
On to `O=C(O)c1ccc(-n2nc(-c3ccccc3O)nc2-c2ccccc2O)cc1`, for which the cytotoxicity call with HSkMC was “inactive”. Further, the cytotoxicity call with HepG2 was “active”. Besides, in the assay on S. aureus RN4220, the growth inhibition call is “inactive”.
As for `CC(C)N1C(=O)[C@@H]2[C@@H](C1=O)[C@@H]1C=C[C@@H]2O1`, the cytotoxicity call in the assay with HSkMC and in the assay with HepG2 was “inactive” each time. In the assay with S. aureus RN4220, the growth inhibition call is “inactive”.
On to `C[C@@H]1CCCCO[C@@H](CN(C)CC2CC2)[C@@H](C)CN([C@H](C)CO)C(=O)c2cc(NC(=O)C3CCCCC3)ccc2O1`, for which the cytotoxicity call with HSkMC and with HepG2 was “inactive” each time. Besides, the growth inhibition call with S. aureus RN4220 is “inactive”.
With `Cc1csc2ccc(F)cc12`, the cytotoxicity call with HSkMC and in the assay with HepG2 was “inactive” in each case. Moreover, the growth inhibition call in the assay on S. aureus RN4220 is “inactive”.
In the case of `COc1ccc(S(=O)(=O)N(C)C[C@@H]2Oc3ccc(NC(=O)NC(C)C)cc3CC(=O)N([C@H](C)CO)C[C@@H]2C)cc1`, the cytotoxicity call in the assay with HSkMC and with HepG2 was “inactive” throughout. Also, the growth inhibition call in the assay with S. aureus RN4220 was “inactive”.
For the molecule `Cc1ccc(NC(=O)Cn2ccn(CCc3ccc(S(N)(=O)=O)cc3)c(=O)c2=O)cc1F`, the cytotoxicity call in the assay on HSkMC and in the assay with HepG2 was “inactive” each time. For the same molecule, in the assay with S. aureus RN4220, the growth inhibition call is “inactive”.
In the case of `C[C@@H]1CN([C@@H](C)CO)C(=O)Cc2cc(NC(=O)Cc3cn(C)c4ccccc34)ccc2O[C@@H]1CN(C)Cc1ccc(Oc2ccccc2)cc1`, in the assay on HSkMC, the cytotoxicity call was “inactive”. The cytotoxicity call with HepG2 was “active”. For the same molecule, the growth inhibition call in the assay on S. aureus RN4220 is “inactive”.
Regarding `CCCNC(=O)N1C[C@]2(CN(C2)S(=O)(=O)c2ccccc2)c2c(n(c3cc(ccc23)OC)C)[C@H]1CO`, in the assay on HSkMC, the cytotoxicity call is “inactive”. The cytotoxicity call in the assay with HepG2 was “active”. The growth inhibition call in the assay with S. aureus RN4220 is “inactive”.
Regarding `Cc1noc(C)c1NC(=O)N(C)C[C@H]1OCCCC[C@H](C)Oc2ccc(NC(=O)c3ccccc3)cc2C(=O)N([C@@H](C)CO)C[C@@H]1C`, the cytotoxicity call in the assay on HSkMC and with HepG2 was “inactive” each time. For the same molecule, the growth inhibition call with S. aureus RN4220 is “inactive”.
Turning to `O=C(CN1CCOCC1)NCC[C@@H]1CC[C@H](NS(=O)(=O)c2ccc(F)cc2)[C@@H](CO)O1`, the cytotoxicity call in the assay with HSkMC and in the assay on HepG2 was “inactive” in each case. Also, the growth inhibition call in the assay with S. aureus RN4220 is “inactive”.
In the case of `[N-]=[N+]=NCCOCCNC(=O)CCCOc1ccc(CS(=O)c2nnc(-c3ccc(F)cc3)o2)nc1` (centres undefined), the cytotoxicity call in the assay on HSkMC and with HepG2 was “active” each time. In the assay on S. aureus RN4220, the growth inhibition call is “active”.
In the case of `C[C@@H]1CN([C@H](C)CO)S(=O)(=O)c2ccc(C#Cc3ccccc3)cc2O[C@H]1CN(C)C(=O)c1ccccn1`, the cytotoxicity call in the assay with HSkMC and in the assay with HepG2 was “inactive” in each case. In addition, the growth inhibition call in the assay with S. aureus RN4220 is “inactive”.
As to `C[C@H]1CCCCO[C@H](CN(C)S(C)(=O)=O)[C@@H](C)CN([C@@H](C)CO)C(=O)c2cc(NC(=O)c3ccncc3)ccc2O1`, the cytotoxicity call with HSkMC and with HepG2 was “inactive” each time. Moreover, in the assay with S. aureus RN4220, the growth inhibition call was “inactive”.
Consider `C[C@H]1CN([C@@H](C)CO)C(=O)c2cc(C#CC3CC3)cnc2O[C@H]1CN(C)S(=O)(=O)c1cccc(F)c1`, for which the cytotoxicity call in the assay with HSkMC and in the assay on HepG2 was “inactive” in each case. Also, the growth inhibition call in the assay with S. aureus RN4220 is “inactive”.
Regarding `C[C@@H]1CCCCO[C@H](CN(C)Cc2ccc(Cl)c(Cl)c2)[C@@H](C)CN([C@H](C)CO)C(=O)c2cc(NC(=O)c3ccccc3)ccc2O1`, the cytotoxicity call with HSkMC and in the assay on HepG2 was “inactive” each time. For the same molecule, the growth inhibition call with S. aureus RN4220 is “inactive”.
Take `COc1ccc(NC(=O)N(C)C[C@H]2OCCCC[C@@H](C)Oc3ccc(NS(=O)(=O)c4ccc(C)cc4)cc3C(=O)N([C@H](C)CO)C[C@@H]2C)cc1`: the cytotoxicity call in the assay with HSkMC and in the assay with HepG2 was “inactive” in each case. For the same molecule, the growth inhibition call with S. aureus RN4220 was “inactive”.
For `CC(C)NC(=O)N(C)C[C@H]1Oc2c(NC(=O)C3CCOCC3)cccc2C(=O)N([C@@H](C)CO)C[C@@H]1C`, the cytotoxicity call with HSkMC and with HepG2 was “inactive” in each case. For the same molecule, in the assay on S. aureus RN4220, the growth inhibition call was “inactive”.
With `C[C@@H]1CN([C@@H](C)CO)C(=O)c2cc(NC(=O)Cc3ccccc3)ccc2O[C@H]1CN(C)S(=O)(=O)c1cccs1`, the cytotoxicity call with HSkMC and with HepG2 was “inactive” each time. In addition, the growth inhibition call with S. aureus RN4220 was “inactive”.
Turning to `C[C@@H]1CCCCO[C@H](CN(C)Cc2ccccc2)[C@@H](C)CN([C@H](C)CO)C(=O)c2cc(NC(=O)CCCCCC(=O)Nc3ccccc3N)ccc2O1`, the cytotoxicity call in the assay with HSkMC and in the assay with HepG2 was “inactive” each time. Also, in the assay with S. aureus RN4220, the growth inhibition call is “inactive”.
On to `COc1ccc(NC(=O)Nc2ccc3c(c2)C(=O)N([C@@H](C)CO)C[C@@H](C)[C@H](CN(C)S(=O)(=O)c2ccccc2)OCCCC[C@@H](C)O3)cc1`, for which the cytotoxicity call in the assay on HSkMC (human skeletal muscle cells) and with HepG2 was “inactive” throughout. Moreover, in the assay with S. aureus RN4220, the growth inhibition call was “inactive”.
Take `COc1ccc(S(=O)(=O)Nc2ccc3c(c2)C(=O)N([C@H](C)CO)C[C@H](C)[C@@H](CN(C)C(=O)Nc2cccc4ccccc24)OCCCC[C@H](C)O3)cc1`: the cytotoxicity call in the assay with HSkMC is “inactive”. Moreover, the cytotoxicity call with HepG2 is “active”. For the same molecule, the growth inhibition call with S. aureus RN4220 is “inactive”.
